Source: the supplement of paper PMC10126150
Sequences with one replicate were seen in a single cluster, so their values are uncertain.

These sequences were tested on ATP (assay: switch fluorescence ratio, 500 uM ATP over buffer (Cy3 cluster intensity, sum of 5 cycles each) (fold (ratio)); higher = stronger signal-on switching upon ATP binding; sequences stand for … in TCGTCGGCAGCGTCAGATGTGTATAAGAGACAGTTTTTTTTTTTTTTTTTTTTTTTTT…TC). Conditions: aptamer strand: ATP DNA aptamer (quencher-CACCTGGGGGAGTATTGCGGAGGAAGG + anchor), 100 nM annealed; ATP concentration: 500 uM; one replicate.
In short: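 After annealing to 100 nM quencher-labelled ATP aptamer, Cy3-labelled switching-strand clusters on a modified Illumina MiSeq flow-cell were imaged in selection buffer. A second image followed after 15 min with 500 uM ATP at 22 °C, and five such buffer/ATP cycles were done, each separated by NaOH stripping and re-annealing. The fluorescence ratio, averaged per switch-domain sequence, is summed target-cycle over summed buffer-cycle Cy3 intensity per cluster, with clusters outside 100-1000 RFU excluded.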
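Also: ATP exposure 15 min at 22 °C before imaging.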

Row | Sequence | switch fluorescence ratio
1 | CGTTGTTAAT | 1
2 | CACGGGTCTA | 1.02
3 | TGTAGGGTTT | 1.01
4 | TTCTTGGGGC | 0.986
5 | CGTTAGGGCG | 1.05
6 | TCAAGTGAAC | 0.991
7 | GTTTTATATA | 0.993
8 | CTCCGGTTGA | 1.9
9 | CGCGCTCTAG | 1.01
10 | ATAATTCAGA | 0.987
11 | AACATCCGAC | 1.77
12 | ACTACGTCGT | 0.996
13 | GGGATCGGGT | 0.988
14 | ACCCTTCAAC | 1.15
15 | TGGACGTCAG | 0.956
16 | AAATAGTGTT | 1.05
17 | TGAACCCGGA | 1.05
18 | ACACAGCTA | 1.25
19 | CGGGACATTT | 0.972
20 | TGGTATCAC | 0.987
21 | CGCGCGTTCT | 0.962
22 | GACTCACCAT | 1.22
23 | ACTAATAGGA | 1.01
24 | GCTGCAGCAG | 1.05
25 | ACAGACGGAG | 0.967

Row | Sequence | switch fluorescence ratio
26 | TGGGATGGG | 0.935
27 | CGTCGATGTT | 0.983
28 | TTTCCAGCGC | 0.972
29 | GACATTAAAC | 1.07
30 | GAAGGTTTTA | 0.957
31 | AGAATAGACC | 0.987
32 | GGGTAAGGA | 0.954
33 | CGAGTATTGA | 0.986
34 | GATTGAGCTC | 1.07
35 | AAATGCATGA | 0.974
36 | CTCAAATCCA | 1.01
37 | GTAGGTGGGC | 0.947
38 | TTGGGCACGC | 1.07
39 | TTCATAGTAT | 0.969
40 | TCTTGAGCGG | 1.01
41 | CAGAAAATGT | 1.01
42 | TGCATAGGTG | 1.45
43 | GGTTTGGGTC | 0.975
44 | GGGAGTGATA | 1
45 | TTCACGGTTA | 1.06
46 | TTGAAAAGCT | 1.08
47 | TTACATTGGG | 1.03
48 | TCGTCAATGT | 1.15
49 | ATTCTCCTTT | 0.951
50 | CCTGAAGGAT | 0.971

Row | Sequence | switch fluorescence ratio
51 | TTTTTCCGA | 1.06
52 | GTCGGAGTTT | 0.946
53 | ATGCACGGAT | 1.11
54 | GAGAGTGCAG | 1.05
55 | CTATTATGCG | 0.984
56 | GCGCCCGAAG | 1.37
57 | GCATTTGTCA | 0.992
58 | GCAGATTGTA | 0.966
59 | ATCGGGGAGT | 1.01
60 | GCGAGCGAGC | 0.951
61 | AAGACCCAAT | 1.06
62 | TCATTTCAAC | 1.03
63 | CCGGCTATAT | 2.72
64 | CACAAAAAAT | 1.04
65 | GAAGTCCATT | 0.983
66 | TCGATCGATA | 1.02
67 | AATTATCC | 1.01
68 | GCTAGCGGGA | 0.993
69 | AAAGGTTCTC | 0.962
70 | GAACCATGCA | 1.01
71 | AGGTGCTGAG | 1.01
72 | CGCCCGACGA | 1.56
73 | AGGGCGCAGG | 0.922
74 | AAGGTTACAG | 1.01
75 | AATGGGTATA | 1.04

Row | Sequence | switch fluorescence ratio
76 | GCTAAGTCCA | 1.03
77 | CGTGGTGAGG | 0.974
78 | ATGGGAAGTA | 0.988
79 | TGTTAGCATC | 1.06
80 | CACGTCTCTA | 0.97
81 | TTGTACGGCG | 1.05
82 | CCTAGGAGGG | 1.04
83 | ACTCTTCCGA | 2.25
84 | TGGGCAGAAA | 0.987
85 | GGCGTGGTGA | 1.05
86 | GGTGATAACA | 1
87 | TAATTTATAT | 1.01
88 | TGCCGGTTAC | 1.09
89 | GCATAAGGCC | 1.03
90 | TACCCTCAGC | 1.17
91 | TGTTGCGCAT | 1.06
92 | GCCGCGAACG | 1.23
93 | AAATTCCGAG | 3.27
94 | TCAGGTCAGC | 0.996
95 | ACGCCGGGA | 1.02
96 | GCTCAGCGTC | 1.29
97 | TGCAGGGTTA | 1.05
98 | CATCTAATCG | 1.02
99 | AATTAGGAGG | 1
100 | ATACTGTTGG | 1.01
